Out of some 48,000 compounds screened, about 550 (1.1%) were called active. Roughly 4% stayed inconclusive and do not appear here. Cut-off read from the data, not from the text of the source: active = potency below about 15 µM; inconclusive = mostly about 16 µM to 33 µM; inactive = weaker than that. The list shows a part of the results.
These compounds were tested against Lysosomal acid glucosylceramidase (Homo sapiens) (UniProt P04062) (assay: Glucocerebrosidase). Conditions: purified enzyme, resorufin glucoside fluorescence (screen aimed at inhibitors), 20 min.
Outline: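 Wild-type enzyme at 0.2 nM final in 50mM citric acid/KH2PO4, 10mM sodium taurocholate, 0.01% tween-20, pH 5.9, with resorufin beta-D-glucopyranoside at 30 uM final. Compounds titrated, 20 min at RT, red fluorescence read; AC50 from titration.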
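Note: the screen sought inhibitors.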
Potency is the fitted concentration of half-maximal effect.

Chain of UniProt P04062 (P04062 whole entry, looked up): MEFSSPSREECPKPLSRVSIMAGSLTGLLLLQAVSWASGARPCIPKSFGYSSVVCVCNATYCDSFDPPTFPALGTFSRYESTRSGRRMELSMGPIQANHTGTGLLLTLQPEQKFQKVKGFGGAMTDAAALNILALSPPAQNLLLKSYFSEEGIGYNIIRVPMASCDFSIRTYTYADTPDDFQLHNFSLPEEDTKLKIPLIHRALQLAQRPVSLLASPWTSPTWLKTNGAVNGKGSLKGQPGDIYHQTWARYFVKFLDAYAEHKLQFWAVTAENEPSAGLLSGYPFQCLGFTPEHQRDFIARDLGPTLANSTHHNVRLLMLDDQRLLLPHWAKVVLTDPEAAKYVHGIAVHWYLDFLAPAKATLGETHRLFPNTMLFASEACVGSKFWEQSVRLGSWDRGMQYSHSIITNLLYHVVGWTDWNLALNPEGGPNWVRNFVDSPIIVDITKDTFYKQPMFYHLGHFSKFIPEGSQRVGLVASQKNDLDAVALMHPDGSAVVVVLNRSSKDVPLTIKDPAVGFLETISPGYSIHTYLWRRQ

Potency, inactive:
O=C(CCN1C(=O)COc2ccccc21)NCc1cccs1 > 76.9 µM
CC(C)CC(OC(=O)c1ccco1)C(=O)NCC1CCCO1 (centres undefined) > 76.9 µM
CC(=O)N1CCCc2cc(S(=O)(=O)NCc3ccc(C)cc3)ccc21 > 76.9 µM
COc1cc(S(=O)(=O)Nc2ncccc2C)c(OC)cc1Cl > 76.9 µM
CCCCn1nnnc1SCC(=O)N1CCN(C(=O)c2ccco2)CC1 > 76.9 µM
Cc1cccc2cc3c(N)c(C(=O)N4CCOCC4)sc3nc12 > 76.9 µM
CN(C(=O)C1CCOC1)c1nnc(-c2ccncc2)s1 (centres undefined) > 76.9 µM
Nc1ncnc2c1ncn2CCOc1ccccc1 > 76.9 µM
O=C(CSc1ccc2c(c1)OCCO2)NCC1CCCO1 (centres undefined) > 76.9 µM
COCCn1nnnc1C(c1ccc(C)cc1)N1CCN(Cc2ccc3c(c2)OCO3)CC1 (centres undefined) > 76.9 µM
O=C1NC(=O)C2(COC3(CCCC3)OC2)S1 > 76.9 µM
O=C(Sc1nnnn1C1CCCCC1)c1cccs1 > 76.9 µM
COC(=O)c1[nH]c2cccc(OC)c2c1NC(=O)CN1CC2(C)CC1CC(C)(C)C2 (centres undefined) > 76.9 µM
O=C(CN1CCC(n2nnc3ccccc32)CC1)NCc1cccs1 > 76.9 µM
CCCCCN(C(=O)NC(=O)NC(C)CC)S(C)(=O)=O (centres undefined) > 76.9 µM
O=C(c1ccccc1)c1ccncc1 > 76.9 µM
CCn1cc(C(=O)NCC(=O)OC)c2cc(OC)c(OC)cc2c1=O > 76.9 µM
CC(C)(C)NC(=O)CSc1nncn1NCc1ccccc1 > 76.9 µM
Cc1cccc(NS(=O)(=O)c2cc(C(=O)OCC(=O)Nc3cc(C)on3)ccc2C)c1
Brc1ccccc1-c1nnc2sc(-c3ccc4c(c3)OCCO4)nn12 > 76.9 µM
O=c1c2cnn(-c3ccc(F)cc3)c2ncn1Cc1cccnc1 > 76.9 µM
Cc1ccc(C)c(N2CCN(C(=O)CC3Sc4ccccc4NC3=O)CC2)c1 (centres undefined) > 76.9 µM
CCOc1ccccc1-c1nc(-c2ccc(NC(=O)Cc3ccccc3OC)cc2)no1 > 76.9 µM
CCOc1ccc(NC(=O)c2ccccc2NC(=O)CN2CCN(C(C)=O)CC2)cc1 > 76.9 µM
CSCC[C@H](NC(=O)Nc1ccc(C)cc1C)C(=O)O > 76.9 µM
Cc1cc(C(=O)NCc2ccc(S(N)(=O)=O)cc2)c(C)o1 > 76.9 µM
Cc1ccc(CNC(=O)C(OC(=O)c2ccco2)C(C)C)cc1 (centres undefined) > 76.9 µM
Cc1ccc(CN2C(=O)CCC2C(=O)NC(C)C)cc1 (centres undefined) > 76.9 µM
CCN(CC)C(=O)CSc1nc(O)cc(=O)n1C > 76.9 µM
Cc1occc1-c1nnc(SCC(=O)Nc2ccc(F)cc2)n1Cc1ccccc1
COCCN(CC(=O)NCc1ccccc1)C(=O)CCC(=O)Nc1nccs1 > 76.9 µM
CCOC(=O)c1oc2ccc(S(=O)(=O)N3CCC(C)CC3)cc2c1C > 76.9 µM
Cc1noc(C)c1C(=O)OCC(=O)NC(=O)NC12CC3CC(CC(C3)C1)C2 > 76.9 µM
COC(=O)COc1ccc(S(=O)(=O)NCCC2=CCCCC2)cc1C > 76.9 µM
CCN1C(=O)C2C(c3ccc(O)c(OC)c3)NC(C)(C(=O)OC)C2C1=O (centres undefined) > 76.9 µM
O=C(Nn1c(-c2ccccc2)nc2ccccc2c1=O)C1CCC1 > 76.9 µM
O=C(CSc1nc2ccccc2[nH]1)Nc1ccc2c(c1)OCCO2 > 76.9 µM
CCN1C(=O)CC(C(=O)Nc2ccc(F)cc2)SC1=Nc1cccc(OC)c1 (centres undefined)
Cc1n[nH]c(C)c1S(=O)(=O)N1CCCC(C(=O)NCC2COc3ccccc3O2)C1 (centres undefined) > 76.9 µM
O=C(Nc1nnc(C2CCCC2)s1)C1CCC1 > 76.9 µM
Cc1cc2cc(CCNC(=O)c3ccc(S(=O)(=O)N4CCOCC4)cc3)c(=O)[nH]c2cc1C > 76.9 µM
O=C1C=C(NCc2ccco2)CCC1 > 76.9 µM
CC(=O)NC(c1ccccc1)c1nc2ccccc2[nH]1 (centres undefined) > 76.9 µM
C=CCOC(=O)C(C#N)c1nc2ccccc2nc1N1CCCC1 (centres undefined) > 76.9 µM
CCCCn1ccnc1C(=O)c1ccc(S(=O)(=O)N(CCOC)CCOC)cc1 > 76.9 µM
O=C(CCS(=O)(=O)c1ccc(Cl)cc1)N1CCN(c2ccccc2F)CC1 > 76.9 µM
COc1cccc(NC(=O)Cc2c(O)c3ccccc3[nH]c2=O)c1 > 76.9 µM
CCN1CCc2nc(NC(=O)Cc3ccc4c(c3)OCCO4)sc2C1 > 76.9 µM
O=C(Cn1cnc2c(cnn2-c2ccc(F)cc2)c1=O)N1CCN(c2ccccc2F)CC1 > 76.9 µM
O=C1CN(c2ccccc2F)C(=O)CN1c1ccccc1F > 76.9 µM
O=C(CN1CCC(C(=O)c2ccc(F)cc2)CC1)Nc1ccccc1 > 76.9 µM
Cc1c(C(=O)N2CCCC2)sc(NC(=O)c2cccs2)c1C#N > 76.9 µM
Cc1cc(-c2nsc(=O)o2)c(S(C)(=O)=O)s1 > 76.9 µM
CCCCC1(CC)C(=O)NC(=O)NC1=Nc1ccc(OC)cc1 (centres undefined) > 76.9 µM
CCCn1c(CCc2ccccc2)nnc1SCC(=O)N1CCCC1 > 76.9 µM
CCOc1ccc(-c2nn[nH]n2)cc1 > 76.9 µM
Cc1ccc(-n2c(C)c3c(C)nnc(C)c3c2C)cc1 > 76.9 µM
COc1ccc(OCCCC(=O)Nc2nncs2)cc1 > 76.9 µM
CCN(CC)C(=O)C1CCC(C)(C(=O)O)C1(C)C (centres undefined) > 76.9 µM
O=C(Cc1cn2ccsc2n1)Nc1nc2c(s1)CCCC2 > 76.9 µM
O=C(CSc1nc2cccnc2n1Cc1ccccc1)NCc1ccco1 > 76.9 µM
COc1cccc(CNc2ccc(S(=O)(=O)Nc3nccs3)cc2)c1O > 76.9 µM
Cc1cc(NC(=O)CSc2nccn2-c2ccc(F)cc2)no1 > 76.9 µM
CCCCCOC(=O)C1=C(C)Nc2nnnn2C1c1ccc(OC)c(OC)c1OC (centres undefined) > 76.9 µM
O=C(NC1CC2CCC1C2)C1COc2ccccc2O1 (centres undefined) > 76.9 µM
O=C(N1CCOCC1)N1CCN(CC(O)COc2ccc3ccccc3c2)CC1 (centres undefined) > 76.9 µM
Cc1nc2ccccc2n1CCC(=O)Nc1cccc(F)c1 > 76.9 µM
CCOC(=O)c1ccc(NC(=O)c2c(C)[nH]c(C(=O)OCC)c2C)cc1 > 76.9 µM
COc1ccc(NC2c3ncccc3C(=O)N2Cc2ccccc2)c(OC)c1 (centres undefined) > 76.9 µM
CCC(OC(=O)c1cccs1)C(=O)NC1CCCCC1 (centres undefined) > 76.9 µM
O=C1NCCCC1C(=O)N1CCN(C(=O)C2CCCNC2=O)CC1 (centres undefined) > 76.9 µM
CCC12CN(C(=O)c3ccc(OC)cc3)CC(CC)(CN(C(=O)c3ccc(OC)cc3)C1)C2=O > 76.9 µM
COc1ccccc1NC(=O)CSc1nnc(Cc2cccn2C)n1CCc1ccccc1 > 76.9 µM
O=C(CN1CCN(c2ccc(F)cc2)CC1)Nc1cccc(C(F)(F)F)c1 > 76.9 µM
O=C(C1CCN(S(=O)(=O)N2CCOCC2)CC1)N1CCc2ccccc21 > 76.9 µM
CCOc1cc(C(=O)NCC2CCCO2)cc(OCC)c1OCC (centres undefined) > 76.9 µM
C=CCn1c(Sc2nncn2C)nc2c1c(=O)[nH]c(=O)n2C > 76.9 µM
CC(=O)NC12CC3CC(C1)CC(C(=O)OCC(=O)Nc1ncc(Cl)c(C)c1Cl)(C3)C2 > 76.9 µM
C=CCn1c(COc2cccc3cccnc23)nnc1SCC(=O)O > 76.9 µM
c1coc(-c2nn3c(Cn4nnc5ccccc54)nnc3s2)c1 > 76.9 µM
Cc1cc(C)nc(N2CCC(C(=O)Nc3ccc4c(c3)CCC4)CC2)n1 > 76.9 µM
Cc1cc2c(c(N3CCOCC3)n1)C(=O)OC2 > 76.9 µM
CC(C)(O)c1cn(-c2nonc2N)nn1 > 76.9 µM
CC1CCCCC1NC(=O)CN1CCN(Cc2ccccc2Cl)C1=O (centres undefined) > 76.9 µM
Nc1nc2ccccc2n1CCN1CCCC1 > 76.9 µM
COc1ccc(N2CC(C)Cn3c2nc2c3c(=O)n(Cc3ccc(F)cc3)c(=O)n2C)c(OC)c1 (centres undefined) > 76.9 µM
O=C(O)c1ccc(NS(=O)(=O)c2cccc3nsnc23)cc1 > 76.9 µM
COCc1cc(C)nc2sc3c(=O)oc(C)nc3c12 > 76.9 µM
O=C(Cc1ccccc1)Nc1nnc(-c2cccs2)s1 > 76.9 µM
COc1ccccc1OCC(=O)OCC(=O)NCCN1C(=O)CSC1=O > 76.9 µM
CN1CCN(C(c2cccnc2)c2ccc3cccnc3c2O)CC1 (centres undefined) > 76.9 µM
C=CCn1c(SCC(=O)C(C)(C)C)nnc1-c1cccs1 > 76.9 µM
Cc1ccccc1NC(=O)c1ccccc1NC(=O)c1ccco1 > 76.9 µM
CCOc1ccccc1N1CC(O)=C(c2nc3ccccc3s2)C1=N

Source: PubChem BioAssay AID360 (National Center for Advancing Translational Sciences (NCATS), 2006)
